From patent US20260176310A1 (NAVIGO PROTEINS, published 2026) come the findings set out here.

For experiment [1], the target named is T1, hFAP expressed on cell surfaces (HEK293-hFAP cells; native on Wi38 cells) (human, UniProt Q12884 1-760).
T1 construct: whole, on cells; also called cell surface-exposed hFAP
T1 sequence (looked up): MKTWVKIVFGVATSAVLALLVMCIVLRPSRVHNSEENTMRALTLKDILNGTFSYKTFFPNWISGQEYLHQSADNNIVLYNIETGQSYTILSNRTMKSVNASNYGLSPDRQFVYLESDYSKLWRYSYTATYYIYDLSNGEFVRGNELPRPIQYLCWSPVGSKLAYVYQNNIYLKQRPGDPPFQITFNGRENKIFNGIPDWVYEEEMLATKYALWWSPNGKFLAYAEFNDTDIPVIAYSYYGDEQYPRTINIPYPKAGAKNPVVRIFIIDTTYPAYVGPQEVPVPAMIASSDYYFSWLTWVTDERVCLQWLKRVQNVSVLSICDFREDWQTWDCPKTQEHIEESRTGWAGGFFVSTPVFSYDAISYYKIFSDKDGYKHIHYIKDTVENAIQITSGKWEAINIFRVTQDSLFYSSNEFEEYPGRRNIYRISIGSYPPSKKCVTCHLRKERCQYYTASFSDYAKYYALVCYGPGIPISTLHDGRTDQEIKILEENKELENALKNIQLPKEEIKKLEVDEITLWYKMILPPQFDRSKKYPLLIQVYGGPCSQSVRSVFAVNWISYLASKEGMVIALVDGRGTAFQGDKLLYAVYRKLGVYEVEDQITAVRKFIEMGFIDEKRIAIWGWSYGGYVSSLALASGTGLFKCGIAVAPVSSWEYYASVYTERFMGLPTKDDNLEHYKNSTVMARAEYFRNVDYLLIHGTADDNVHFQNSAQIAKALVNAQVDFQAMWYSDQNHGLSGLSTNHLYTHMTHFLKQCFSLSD
Description: flow cytometry titration on HEK293-hFAP cells; Affilin dilution series in 100% human serum, 0 h preincubation; detection with rabbit anti-Strep-Tag antibody and anti-rabbit IgG Alexa Fluor 488. On the procedure:
(§1) Dilution series of Affilin proteins were incubated with human serum for 24 h and 0 h (control) at 37° C. HEK293-hFAP-cells were incubated with dilution series for 45 min at 4° C. Cells were centrifuged and supernatants were removed. Cells were washed with FACS blocking buffer and 100 μl/well rabbit anti-Strep-Tag antibody (GenScript; A00626), 1:300 diluted in FACS blocking buffer were added. After removal of the primary antibody goat anti-rabbit IgG Alexa Fluor 488 antibody (Invitrogen; A11008) was applied in a 1:1000 dilution in FACS blocking buffer. Flow cytometry measurement was conducted on the Guava easyCyte 5HT device from Merck-Millipore at excitation wavelength 488 nm and emission wavelength 525/30 nm.
A general note: In flow cytometry, cells or beads pass a laser one at a time.

For experiment [2], the target named is T1, hFAP expressed on cell surfaces …. Description: flow cytometry titration on HEK293-hFAP cells; Affilin dilution series preincubated 24 h at 37 °C in 100% human serum; detection with rabbit anti-Strep-Tag antibody and anti-rabbit IgG Alexa Fluor 488. On the procedure:
as §1

B1: Affilin®-217863 (designed binder)
chain: MQIFVWTEMHKRITLEVEPSDTIENVKAKIQDKEGIPPDQQHLTWKGKQLEDGRTLSDYNISEWPNLFLRLNLRAA
notes: Ubiquitin mutein
B1: the Kd (in general, a measure of binding affinity in units of concentration) in experiment [1] turned out to be 1.14 nM; in experiment [2], 0.89 nM.
